Hit rate of the full screen: of about 150,000 compounds, about 540 (0.36%) showed an effect of 50% or more. The list shows a part of the results.

This experiment deals with Plasmodium falciparum. The experiment in a line: Primary screen in NF54 nanoGlo assay, in single point, at 2uM, 72h; a lower Z score goes with more inhibition. It counts as functional, Erythrocyte. Conditions: timepoint 72 hour.
For the molecule `CC(C)Cn1cc(C(F)F)c(C(=O)NC2(C(=O)O)CCCC2)n1`, the % Inhibition (in general, the change of the read-out against control, counted positive when it falls) is -8% and the Z score is on record as 0.68.

On to `CCc1nnc2c(=O)n(CC(=O)Nc3ccccc3C)c3ccccc3n12`, for which the “% Inhibition” value is on record as 0% and the Z score came out at 0.

For the molecule `Cc1nc(N(C)C)nc(NCCc2nc3ccccc3c(=O)[nH]2)c1C`, the “% Inhibition” value came out at 3% and the Z score was -0.54.

In the case of `COC(=O)c1ccccc1N(C)C(=O)c1ccc(Cl)c(S(=O)(=O)N2CCCCCC2)c1`, the “% Inhibition” value amounted to 30% and the Z score is on record as -3.42.

For the molecule `Cc1onc(C(=O)N2CCC3(CC2)CC[C@]3(C)O)c1COc1ccccc1`, the “% Inhibition” value is -15% and the Z score is reported as 1.89.

Take `CCN1CC[C@H](CNS(=O)(=O)c2ccc3[nH]cnc3c2)C1`: the “% Inhibition” value was -9% and the Z score stood at 1.22.

Turning to `COCC(O)CN1CCCC(C(C)C)CC1` (configuration not stated), the “% Inhibition” value was -5% and the Z score is recorded as 0.7.

Turning to `CCc1cc(NC(=O)C[C@H]2CCCS(=O)(=O)C2)n(C)n1`, the “% Inhibition” value is given as -11% and the Z score was found to be 1.91.

For `CCc1nn(C)cc1NC(=O)N[C@H](CO)C(C)(C)C`, the “% Inhibition” value was -7% and the Z score turned out to be 1.35.

With `O=C(Cc1noc2ccccc12)Nc1nc2ccccc2[nH]1`, the “% Inhibition” value is -16% and the Z score was found to be 2.14.

Take `CCCC(C)C1CCCN1C(=O)C(=O)Nc1cnc(CC)nc1` (configuration not stated): the “% Inhibition” value was -8% and the Z score is 0.88.

Consider `CO[C@@H](CNC(=O)c1ccc(C(C)C)nc1)C1CC1`, for which the “% Inhibition” value is -3% and the Z score was 0.61.

`O=C(Nc1nnc([C@H]2CC(=O)N(c3ccc(OC(F)(F)F)cc3)C2)o1)c1cccc(F)c1`: the “% Inhibition” value is -4% and the Z score is on record as 0.6.

Consider `C[C@H]1Cc2cc(CN3CCC(C(=O)O)(n4cccn4)CC3)ccc2O1`, for which the “% Inhibition” value was 4% and the Z score was -0.76.

As for `CCN1CCN(C(=O)CCc2nnc(CCc3ccc(OC)cc3)o2)[C@@H](C)C1=O`, the “% Inhibition” value was -9% and the Z score is 1.46.

In the case of `CC(C)=CC1C(C(=O)N(C)CC2COc3ccccc3O2)C1(C)C` (configuration not stated), the “% Inhibition” value is listed as -4% and the Z score stood at 0.45.

As to `COc1cc(C(=O)NCCc2ccc(Cl)cc2)ccc1OCC(=O)N1CCOCC1`, the “% Inhibition” value is reported as -15% and the Z score worked out at 1.83.

`O=C(NCc1cc2n(n1)CCCO2)[C@H]1CCc2[nH]nc(C(F)(F)F)c2C1`: the “% Inhibition” value is given as 1% and the Z score is listed as -0.22.

Consider `COc1ccc(CN(C)C(=O)NC2CCCCCC2)cc1O`, for which the “% Inhibition” value is -13% and the Z score was determined as 1.31.

Consider `FC(F)(F)c1ccc2c(c1)nc1n2CCCC1`, for which the “% Inhibition” value is -4% and the Z score is reported as 0.58.

Regarding `Cn1c(C(F)(F)F)nn(C2CCN(C(=O)c3ccncc3F)CC2)c1=O`, the “% Inhibition” value is -14% and the Z score came to 1.55.

Regarding `O=C(NC1CCCCCC1)[C@H]1CC(=O)N(c2cccc(-c3noc(-c4cccs4)n3)c2)C1`, the “% Inhibition” value is given as -1% and the Z score is listed as 0.17.

`O=C(NCc1ccccn1)[C@H]1CCCN(c2nnc3ccc(C(F)(F)F)cn23)C1`: the “% Inhibition” value was -4% and the Z score was found to be 0.66.

For `COc1cncc(S(=O)(=O)N(c2nc3ccccc3o2)C2CC2)c1`, the “% Inhibition” value is given as -3% and the Z score is 0.53.

Take `COc1ccc([C@@]2(CC(=O)NCc3nc4cc(F)ccc4[nH]3)CC(=O)N(C3CCCC3)C2=O)cc1`: the “% Inhibition” value was -8% and the Z score is recorded as 1.52.

With `CCc1ccc(NC(=O)Cn2nc3c(N4CCN(c5ccc(C)cc5)CC4)nccn3c2=O)cc1`, the “% Inhibition” value worked out at 1% and the Z score is -0.12.

On to `CCOc1ccc2c(c1)NC(=O)C[C@H]2c1ccc(OC)nc1`, for which the “% Inhibition” value is -6% and the Z score was 1.03.

`NC(=O)CNC(=O)c1coc(NC(=O)c2ccccc2)n1`: the “% Inhibition” value is reported as -8% and the Z score stood at 1.25.

As to `Clc1cc(Cl)cc(-c2ncccn2)c1`, the “% Inhibition” value stood at 1% and the Z score is reported as -0.2.

With `Cc1ccc2c(CCC(=O)NC[C@H]3CCC[C@@H]3O)c[nH]c2c1`, the “% Inhibition” value was -21% and the Z score amounted to 3.62.

Regarding `O=C(Nc1cnccn1)c1ccncc1`, the “% Inhibition” value was -11% and the Z score stood at 1.22.

Turning to `CN(C(=O)CC[C@H]1CCCOC1)c1nc2ccccc2n1C`, the “% Inhibition” value is -10% and the Z score is given as 1.23.

In the case of `Cc1c(-c2ccc(F)cc2)[nH]c2ccc(CNc3nccc(N(C)C)n3)cc12`, the “% Inhibition” value was determined as 29% and the Z score is -4.59.

In the case of `CN(C(=O)[C@H]1CCCN(C2CCN(Cc3ccncc3)CC2)C1)C1CCCCC1`, the “% Inhibition” value is recorded as -4% and the Z score is recorded as 0.54.

For `CCCCNC(=O)N1CC(C(=O)NCc2cccnc2)CCC1c1ccccc1` (configuration not stated), the “% Inhibition” value is recorded as 1% and the Z score was -0.18.

For `Cc1cnc(C(=O)N[C@H]2CCC(=O)N(C)C2)cn1`, the “% Inhibition” value is -10% and the Z score turned out to be 1.6.

Consider `O=C(NC[C@](O)(c1ccoc1)c1ccco1)c1ccco1`, for which the “% Inhibition” value is listed as -5% and the Z score turned out to be 1.01.

As for `O=C(CCCC(=O)N1CC[C@@](O)(C(F)F)C1)NCc1ccccc1`, the “% Inhibition” value is -12% and the Z score is 1.59.

As to `O=C(O)[C@H]1CC[C@@H]1C(=O)Nc1scnc1-c1ccccc1`, the “% Inhibition” value is -16% and the Z score is given as 2.59.

`O=C(Cc1ccc(Cl)s1)N1CCC[C@H]1Cn1cc(C2CC2)nn1`: the “% Inhibition” value was -11% and the Z score was 0.92.

`CCc1ccc(CN2CCC3(CC2)[C@H](O)C[C@@H]3O)o1`: the “% Inhibition” value is listed as -1% and the Z score is 0.27.

The record behind these values is ChEMBL document CHEMBL4888484, “Replenishing the malaria drug discovery pipeline: Screening and hit evaluation of the MMV Hit Generation Library 1 (HGL1) against asexual blood stage Plasmodium falciparum ,using a nano luciferase reporter read-out” (2022).
